# Assay results taken from PMC4336329 (PLoS ONE, 2015).
# The campaign covered roughly 310,000 compounds. About 2,200 (0.71%) showed an effect of 50% or more. The effect is printed as a negative number. Some of the results follow.
# Molecular target: human ether-à-go-go-related gene (hERG) potassium channel (human, UniProt Q12809)
# Assay: primary screen, population patch clamp on CHO cells stably expressing hERG
# Sequence of human ether-à-go-go-related gene (hERG) potassium channel (Q12809 whole entry, looked up): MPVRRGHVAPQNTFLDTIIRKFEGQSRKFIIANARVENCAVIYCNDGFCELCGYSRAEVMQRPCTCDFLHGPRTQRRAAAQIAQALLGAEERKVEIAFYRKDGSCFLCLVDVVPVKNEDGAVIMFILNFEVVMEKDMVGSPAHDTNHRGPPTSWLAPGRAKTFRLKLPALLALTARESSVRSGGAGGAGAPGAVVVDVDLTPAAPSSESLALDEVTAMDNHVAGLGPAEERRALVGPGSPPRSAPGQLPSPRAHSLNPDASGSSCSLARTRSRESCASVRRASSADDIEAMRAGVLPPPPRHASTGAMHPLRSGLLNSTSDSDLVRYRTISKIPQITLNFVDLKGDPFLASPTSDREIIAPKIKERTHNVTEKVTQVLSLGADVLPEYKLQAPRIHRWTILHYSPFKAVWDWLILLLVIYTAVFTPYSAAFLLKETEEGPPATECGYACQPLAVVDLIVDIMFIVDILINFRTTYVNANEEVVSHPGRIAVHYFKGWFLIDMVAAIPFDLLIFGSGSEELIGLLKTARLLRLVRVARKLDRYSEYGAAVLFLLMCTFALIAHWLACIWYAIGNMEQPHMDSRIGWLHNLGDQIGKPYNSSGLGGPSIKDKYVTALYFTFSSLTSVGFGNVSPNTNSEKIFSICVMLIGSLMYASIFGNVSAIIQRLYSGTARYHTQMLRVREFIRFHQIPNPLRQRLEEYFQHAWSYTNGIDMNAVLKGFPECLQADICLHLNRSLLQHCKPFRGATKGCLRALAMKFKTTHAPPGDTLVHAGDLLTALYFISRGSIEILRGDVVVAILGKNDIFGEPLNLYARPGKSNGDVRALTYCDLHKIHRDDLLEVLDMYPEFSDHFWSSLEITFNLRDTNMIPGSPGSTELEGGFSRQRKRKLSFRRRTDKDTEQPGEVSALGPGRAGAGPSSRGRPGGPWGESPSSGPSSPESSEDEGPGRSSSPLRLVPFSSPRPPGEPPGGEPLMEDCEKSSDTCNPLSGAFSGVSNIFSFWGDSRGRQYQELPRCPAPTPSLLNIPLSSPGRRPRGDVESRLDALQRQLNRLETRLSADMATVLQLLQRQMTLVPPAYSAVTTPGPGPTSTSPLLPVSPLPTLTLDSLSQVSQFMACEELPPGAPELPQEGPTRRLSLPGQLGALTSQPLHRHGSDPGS
row,Structure (SMILES),"hERG current change (%, negative = inhibition) at 1uM"
1,O=C(COC(=O)C1CC2CCCC(C1)C2=O)NC(=O)c1ccccc1 (centres unmarked),4.93%
2,CCOc1cccc(NC(=O)/C(C#N)=C\c2cn(CC(=O)O)c3ccccc23)c1,13.9%
3,C[n+]1cccc(CNC(=O)/C=N/O)c1.[I-],10.2%
4,C=CCNc1nc(N)c([N+](=O)[O-])c(NC2CCCCC2)n1,7.67%
5,Cn1ccnc1C(O)c1ccc(OCc2ccccc2)cc1 (centres unmarked),7.09%
6,COc1ccc(C2Nc3ccccc3C(=O)N2c2ccc(C)cc2)cc1Cn1nnc2ccccc21 (centres unmarked),-5.27%
7,Cn1c(=O)c2c(nc(NCCNC(=O)c3ccco3)n2Cc2ccccc2Cl)n(C)c1=O,11.9%
8,CC(C)CC(=O)NC(=S)Nc1ccccc1N1CCCC1,8.11%
9,CSCCC(NC(=O)c1ccccc1)C(=O)OCC(=O)Nc1ccc(C)c(Cl)c1 (centres unmarked),-4.63%
10,O=C(COc1ccc2ccccc2c1)Nc1nc2ccccc2[nH]1,-1.6%
11,Cc1cccc2c1cnn2C(=O)Nc1ccccc1Br,17.4%
12,CCSc1nnc(NC(=O)CSc2nnc(CNC(=O)c3ccc(OC)cc3)o2)s1,11.6%
13,CCOC(=O)N/N=C(\C)c1ccc(C)o1,15.5%
14,COc1ccccc1NC(=S)NCc1ccco1,3.34%
15,COc1ccc2nc(SCC(=O)NC3CCCc4ccccc43)[nH]c2c1 (centres unmarked),6.8%
16,Fc1ccc(NC(=S)NC2CC3CCC(C2)N3Cc2ccco2)cc1 (centres unmarked),3.96%
17,N#Cc1nc(-c2ccc(F)cc2)oc1N1CCC(C(N)=O)CC1,5.88%
18,COc1ccc(/C=N/NC(=O)c2ccccc2OCc2ccccc2)c(OC)c1,-7.53%
19,O=C(CSc1ncnc2nc[nH]c12)N1CCOCC1,6.62%
20,O=C(CCCCCNC(=O)N1CCn2c1nc1ccccc12)NCc1ccc(F)cc1,2.46%
21,COc1ccc(S(=O)(=O)N2CCC(C(=O)NCCC(=O)Nc3nccs3)CC2)cc1,11.8%
22,Cc1ccccc1NC(=O)C(C)OC(=O)CNS(=O)(=O)c1ccc(C#N)cc1 (centres unmarked),9.02%
23,CCOC(=O)C(CC)Sc1nc2c(cnn2-c2ccc(F)cc2)c(=O)[nH]1 (centres unmarked),17.1%

row,Structure (SMILES),"hERG current change (%, negative = inhibition) at 1uM"
1,CCCN(CCC)C(=O)CC(c1ccccc1)c1ccc(C)cc1O (centres unmarked),-3.4%
2,CCCN(C(=O)c1nc2nccc(C)n2n1)c1c(N)n(Cc2ccccc2)c(=O)[nH]c1=O,5.88%
3,CCOc1ccc(S(=O)(=O)NCCC(=O)OC(C)C(=O)N2CCc3ccccc32)cc1 (centres unmarked),13.6%
4,Cc1cccc(Cn2c(SCCO)nc3c2c(=O)n(C)c(=O)n3C)c1,-0.143%
5,Cn1[nH]c(C(F)(F)F)cc1=O,4.98%
6,CN(C)S(=O)(=O)c1cc(NC(=O)c2ccc(-n3ccnc3)c([N+](=O)[O-])c2)ccc1Cl,12.7%
7,CCOc1ccc2c(c1)sc1nc(C(=O)OC)cc(=O)n12,-1.25%
8,O=C(NC1CC2CCCC(C1)N2C(=O)NC1CCCCC1)c1ccc(F)cc1 (centres unmarked),13%
9,CCCCN(C(=O)CSCC(=O)Nc1ccc(C)cc1)c1c(N)n(CC(C)C)c(=O)[nH]c1=O,12.1%
10,Cc1ccc(SC(c2ccc(C)cc2)C(Cn2cncn2)C(=O)c2ccccc2)cc1 (centres unmarked),10.6%
11,CCCCn1c(O)c(C(C)=NCc2cc(OC)cc(OC)c2)c(=O)[nH]c1=O,-18.3%
12,Cc1ccc(NS(=O)(=O)c2c(C)[nH]c(C)c2C(=O)N2CCCCC2)c(C)c1,15.8%
13,COc1ccc(C(=O)N=c2sc3ccccc3n2C)cc1,5.03%
14,COC(=O)c1sc(-c2ccc(Cl)cc2)cc1NC(=O)CSCC(=O)O,15.7%
15,COc1ccc(CN2CCN(Cc3ccco3)CC2)cc1.O=C(O)C(=O)O,12.3%
16,COc1ccc2cc3cc(C(=O)NCCN4CCc5ccccc5C4)oc3nc2c1,-19.7%
17,CCOC(=O)c1cnc2c(c(C)nn2C)c1Oc1ccc(OC)cc1,6.03%
18,COc1cc(C(C[N+](=O)[O-])c2c(C)[nH]c3ccccc23)cc(OC)c1OC (centres unmarked),23.4%
19,Cc1ccc(C)c(OCCC(=O)OCC(=O)c2c(N)n(C)c(=O)n(C)c2=O)c1,-10.1%
20,CC(=O)Nc1ccc(NC(=O)COc2ccc(-c3ccccc3)cc2)cc1,8.95%
21,CCC1CN(C(=O)N2CCC(C(=O)NCc3ccc(OC)cc3OC)CC2)c2ccccc2O1 (centres unmarked),4.61%
22,COc1ccccc1N1CCN(C(C)C(=O)N2CC(C)OC(C)C2)CC1.O=C(O)C(=O)O (centres unmarked),9.39%
23,COC(=O)CSC1=NP(=S)(SCC(=O)OC)N2CCCC2=C1C#N (centres unmarked),4.83%

row,Structure (SMILES),"hERG current change (%, negative = inhibition) at 1uM"
1,CCOc1ccc(C2NC(=S)NC3=C2CCc2ccccc23)cc1 (centres unmarked),4.39%
2,O=C(CSc1nnc(CNC(=O)c2cccs2)o1)Nc1cccc(Cl)c1,14.7%
3,COCCn1nnnc1C(c1ccc(OC)cc1)N1CCC(C)CC1 (centres unmarked),10.2%
4,O=Cc1ccc2cccnc2n1,8.82%
5,Cc1ccc(CNc2ccc(N3C(=O)CCCC3=O)cc2[N+](=O)[O-])cc1,2.32%
6,Cc1nnc2n(Cc3ccccc3)c(=O)c3c4c(sc3n12)COC(C(C)C)C4 (centres unmarked),9.28%
7,CC1=C(C(=O)Nc2cccc(C(=O)NC(C)c3ccccc3)c2)SCCO1 (centres unmarked),14.8%
8,CC(=O)CCC(C)=O,15.9%
9,O=C(COC(=O)C1CCN(c2ccc(C(F)(F)F)cn2)CC1)c1ccccc1,2.55%
10,Cc1ccc(OCCC(=O)O)cc1,17.1%
11,COc1ccc(CCNC(=O)NS(=O)(=O)c2ccc(C)cc2)cc1OC,12.7%
12,COC(=O)C1C(C(C)C)N(c2ccccc2)OC1(C)O (centres unmarked),8.27%
13,NS(=O)(=O)c1ccc(NC(=O)C2Cc3ccccc3CN2C(=O)c2ccco2)cc1 (centres unmarked),12.1%
14,Cc1cccc(NC(=O)N2CCCC2)c1,12.9%
15,CCN1C(=O)[C@H]2[C@@H](c3ccc(C)cc3)N3C(=O)N(c4cccc(Cl)c4)C(=O)[C@@]3(CC(C)C)[C@H]2C1=O,6.3%
16,COc1ccc2oc(=O)c(C(=O)N3CCCc4ccccc43)cc2c1,-32.7%
17,COc1ccc([C@H]2CC(=O)C=C(c3c(OC)cccc3OC)C2)cc1,3.15%
18,CC(=O)c1ccc(S(=O)(=O)NCC(=O)Nc2nc3ccccc3[nH]2)cc1,6.02%
19,O=C(C1CCC1)N1CCc2cc(S(=O)(=O)NCC3COc4ccccc4O3)ccc21 (centres unmarked),-5.84%
20,Cc1cc(C)n2nc(SCc3nnc(SCc4ccccc4Cl)s3)nc2n1,8.43%
21,FC(F)Oc1ccc(NC(=S)Nc2ccc3cn[nH]c3c2)cc1,-30.4%
22,COc1ccc(C(=O)CCC(=O)Nc2cccnc2)c(OC)c1,13%
23,COC(=O)C1=C(C)N(C)C(=S)NC1c1ccccc1 (centres unmarked),3.43%

row,Structure (SMILES),"hERG current change (%, negative = inhibition) at 1uM"
1,Cc1ccc(C)c(S(=O)(=O)Nc2ccc(C(N)=O)cc2)c1,12.3%
2,COC(=O)c1sccc1NC(=O)Nc1ccc(F)cc1,12.5%
3,CN1CCN(C(=O)CN(Cc2ccc(Cl)cc2)S(C)(=O)=O)CC1,7.83%
4,Cc1nnc(-c2ccccc2)c[n+]1[O-],11.7%
5,CCNc1nc(NC(C)CC)nc(Oc2ccc(OCC)nn2)n1 (centres unmarked),3.84%
6,COC(=O)c1ccccc1NC(=O)c1cc2ccccc2o1,10.8%
7,O=C(CN1CCN(Cc2ccc(F)cc2Cl)C1=O)NCCc1ccccc1,1.85%
8,CCN1CCN(Cc2ccc(NC(=O)c3cc(NC(=O)C4=NN(c5ccccc5)C(=O)C4)cc(OC)c3)cc2C(F)(F)F)CC1,8.91%
9,O=C(c1cc([N+](=O)[O-])ccc1Cl)N1CCN(c2ccc([N+](=O)[O-])cc2)CC1,-58.8%
10,O=C1Nc2ccccc2C12OCCS2 (centres unmarked),7.52%
11,COCC(=O)N1CCC(Oc2ccc(C(=O)NC3CCOC(C)(C)C3)cc2)CC1 (centres unmarked),12.5%
12,O=C(Cc1ccccc1[N+](=O)[O-])N1CCc2ccccc2C1,7.61%
13,O=C(C1CCCN1S(=O)(=O)c1ccc(Cl)c(Cl)c1)N1CCOCC1 (centres unmarked),7.47%
14,CCOc1cc(N2CCOCC2)c(OCC)cc1NC(=O)Cc1cccc2ccccc12,13.2%
15,CCCN(CCC)C(=O)CC(c1ccc(F)cc1)c1ccco1 (centres unmarked),-1.3%
16,O=[N+]([O-])c1ccc(C2OCCO2)cc1CS(=O)(=O)c1ccccc1,4.14%
17,O=S(=O)(Cc1ccccc1Cl)NCCc1ccccc1,9.64%
18,Cc1cccc(N2CCN(S(=O)(=O)c3ccc4c(c3)NC(=O)CO4)CC2)c1C,6.92%
19,Clc1ccc(CN2CCN(c3ncccn3)CC2)cc1Cl,10.8%
20,O=c1nc(N2CCCCC2)nc2n1CCO2,12.5%
